Experimental data: publication PMC3744423
These are yes or no findings as the source states them, for the method shown. Binding seen in cells or lysates may run through a third protein. Some binding calls cover weakened binding; strength is not graded here. For some assays here: Sequences can lack the tags named with a protein.

Amino acid sequences for entries named in this document (tags omitted). A change or cut given only in a name is not applied to a line headed by its entry.
UniProt P35222: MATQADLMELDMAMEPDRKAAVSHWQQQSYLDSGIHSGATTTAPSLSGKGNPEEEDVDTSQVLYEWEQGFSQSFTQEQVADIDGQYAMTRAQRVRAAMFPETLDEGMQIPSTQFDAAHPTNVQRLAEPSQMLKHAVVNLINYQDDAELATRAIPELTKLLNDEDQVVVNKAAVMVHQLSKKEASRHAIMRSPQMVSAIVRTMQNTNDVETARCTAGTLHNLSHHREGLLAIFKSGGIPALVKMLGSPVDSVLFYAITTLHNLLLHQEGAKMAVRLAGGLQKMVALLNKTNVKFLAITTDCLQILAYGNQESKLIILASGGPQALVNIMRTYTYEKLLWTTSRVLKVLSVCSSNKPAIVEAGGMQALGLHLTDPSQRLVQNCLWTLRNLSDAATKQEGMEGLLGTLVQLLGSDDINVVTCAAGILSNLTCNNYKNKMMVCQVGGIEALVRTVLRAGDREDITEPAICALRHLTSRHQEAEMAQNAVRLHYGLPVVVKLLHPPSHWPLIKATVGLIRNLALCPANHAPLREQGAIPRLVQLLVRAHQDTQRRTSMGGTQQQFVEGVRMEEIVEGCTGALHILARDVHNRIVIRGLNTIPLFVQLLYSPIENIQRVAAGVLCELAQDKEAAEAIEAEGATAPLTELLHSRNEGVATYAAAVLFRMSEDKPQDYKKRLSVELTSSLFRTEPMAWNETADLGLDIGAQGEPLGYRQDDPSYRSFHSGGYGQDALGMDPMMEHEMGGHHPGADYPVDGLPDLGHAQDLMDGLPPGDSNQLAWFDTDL
UniProt P36402: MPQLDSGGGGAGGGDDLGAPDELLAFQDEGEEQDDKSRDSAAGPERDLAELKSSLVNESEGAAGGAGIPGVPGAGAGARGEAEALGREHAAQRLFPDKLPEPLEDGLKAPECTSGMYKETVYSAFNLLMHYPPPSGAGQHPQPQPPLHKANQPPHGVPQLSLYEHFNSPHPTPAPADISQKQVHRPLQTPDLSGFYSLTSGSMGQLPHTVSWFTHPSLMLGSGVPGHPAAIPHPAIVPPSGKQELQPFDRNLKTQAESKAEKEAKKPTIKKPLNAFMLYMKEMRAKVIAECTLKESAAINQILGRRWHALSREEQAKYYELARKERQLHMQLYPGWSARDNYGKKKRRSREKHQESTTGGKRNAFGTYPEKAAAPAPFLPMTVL
UniProt Q9UJU2: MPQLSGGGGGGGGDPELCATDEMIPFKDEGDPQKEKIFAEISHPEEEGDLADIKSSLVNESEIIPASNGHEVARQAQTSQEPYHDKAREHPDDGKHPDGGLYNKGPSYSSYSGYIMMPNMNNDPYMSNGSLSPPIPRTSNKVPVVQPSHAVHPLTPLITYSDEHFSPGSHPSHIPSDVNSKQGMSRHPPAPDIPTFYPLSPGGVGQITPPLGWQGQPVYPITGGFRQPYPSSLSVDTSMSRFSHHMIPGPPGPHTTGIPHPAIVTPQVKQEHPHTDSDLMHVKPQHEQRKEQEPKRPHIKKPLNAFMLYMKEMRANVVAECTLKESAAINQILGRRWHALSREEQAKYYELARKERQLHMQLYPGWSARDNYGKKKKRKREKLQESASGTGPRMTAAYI
UniProt Q9NQB0: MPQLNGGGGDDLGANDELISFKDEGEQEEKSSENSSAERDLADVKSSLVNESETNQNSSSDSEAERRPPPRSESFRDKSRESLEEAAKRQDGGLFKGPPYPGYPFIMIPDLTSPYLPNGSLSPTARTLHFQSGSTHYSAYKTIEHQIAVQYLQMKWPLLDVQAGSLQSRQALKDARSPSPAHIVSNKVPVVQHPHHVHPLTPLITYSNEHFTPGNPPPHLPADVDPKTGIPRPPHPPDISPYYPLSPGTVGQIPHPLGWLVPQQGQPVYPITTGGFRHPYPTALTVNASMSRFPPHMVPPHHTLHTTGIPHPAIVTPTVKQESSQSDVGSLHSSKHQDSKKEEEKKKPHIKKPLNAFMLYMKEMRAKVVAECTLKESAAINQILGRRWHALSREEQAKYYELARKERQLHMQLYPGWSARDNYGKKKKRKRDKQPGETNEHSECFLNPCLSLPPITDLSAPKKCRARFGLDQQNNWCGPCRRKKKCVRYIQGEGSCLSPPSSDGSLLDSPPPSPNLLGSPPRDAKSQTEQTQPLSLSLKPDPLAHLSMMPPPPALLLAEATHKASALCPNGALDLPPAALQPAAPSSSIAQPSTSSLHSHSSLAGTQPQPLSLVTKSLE

Tests used:
[1] = biological target: T1, Flag-tagged CREB5 (human) (UniProt Q02930); test: co-IP; 293T cells co-transfected with Flag-tagged CREB5, HA-tagged TCF1 and HA-tagged TCF4; immunoprecipitation with anti-Flag antibody, immunoblot with anti-HA or anti-Flag
T1 sequence: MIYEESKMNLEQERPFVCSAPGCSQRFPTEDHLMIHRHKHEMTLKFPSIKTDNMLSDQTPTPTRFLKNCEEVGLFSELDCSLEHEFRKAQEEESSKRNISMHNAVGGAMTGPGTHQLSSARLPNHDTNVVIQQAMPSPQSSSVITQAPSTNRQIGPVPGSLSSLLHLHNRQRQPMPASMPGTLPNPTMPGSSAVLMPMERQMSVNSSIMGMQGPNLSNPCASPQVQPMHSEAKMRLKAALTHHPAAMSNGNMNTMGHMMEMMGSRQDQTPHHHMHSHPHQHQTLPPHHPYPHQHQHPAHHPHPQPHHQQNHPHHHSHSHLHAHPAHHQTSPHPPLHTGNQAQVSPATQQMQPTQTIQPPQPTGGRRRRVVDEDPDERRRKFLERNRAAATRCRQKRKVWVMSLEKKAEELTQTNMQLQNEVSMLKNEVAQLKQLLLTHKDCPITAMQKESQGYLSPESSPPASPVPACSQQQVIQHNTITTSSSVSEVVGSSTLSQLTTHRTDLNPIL

myc-tagged β-catenin = myc-tagged β-catenin (UniProt P35222); test: co-IP; 293T cells transfected with myc-tagged β-catenin and HA-tagged wild-type or mutant TCF1; immunoprecipitation with anti-myc antibody, immunoblot with anti-myc or anti-HA
[2] = biological target: T1, Flag-tagged CREB5 (human); test: co-IP; 293T cells, myc-tagged LEF1 and Flag-tagged CREB5; precipitating antibody not named in the legend
[3] = biological target: HA-tagged TCF1 mutant (D21A; E29K) (human) (UniProt P36402); test: co-IP; 293T cells co-transfected with HA-tagged TCF1 or TCF4 constructs and myc-tagged β-catenin; immunoprecipitation with anti-HA antibody, immunoblot with anti-myc or anti-HA; lysis buffer 50 mM Hepes pH 7.6, 150 mM NaCl, 5 mM EDTA, 1% Nonidet P-40
Flag-tagged TCF1 (human) = Flag-tagged TCF1 (human) (UniProt P36402); test: co-IP; 293T cells with Flag-tagged TCF1, endogenous ATF2 detected; cells transduced with lentiviral shATF2 as negative control
[4] = biological target: Endogenous LEF1 (K562 and Ramos cells) (human (endogenous in K562 and Ramos)) (UniProt Q9UJU2); test: co-IP; 2 mg of lysate from K562 or Ramos cells immunoprecipitated with 10 ug of anti-LEF1 or control antibody, immunoblot; endogenous proteins

HA-tagged TCF1 (from UniProt P36402 1-384)
binding [1]: binds

HA-tagged TCF1 mutant (D21A; E29K) (from UniProt P36402 1-384)
binding (myc-tagged β-catenin): no binding

HA-tagged TCF4 (from UniProt Q9NQB0 1-619)
binding [1]: binds

myc-tagged LEF1 (from UniProt Q9UJU2 1-399)
binding [2]: binds

myc-tagged β-catenin (from UniProt P35222 1-781)
binding [3]: no binding

B1: Endogenous ATF2 (293T cells) (protein, UniProt P15336 1-505)
chain: MKFKLHVNSARQYKDLWNMSDDKPFLCTAPGCGQRFTNEDHLAVHKHKHEMTLKFGPARNDSVIVADQTPTPTRFLKNCEEVGLFNELASPFENEFKKASEDDIKKMPLDLSPLATPIIRSKIEEPSVVETTHQDSPLPHPESTTSDEKEVPLAQTAQPTSAIVRPASLQVPNVLLTSSDSSVIIQQAVPSPTSSTVITQAPSSNRPIVPVPGPFPLLLHLPNGQTMPVAIPASITSSNVHVPAAVPLVRPVTMVPSVPGIPGPSSPQPVQSEAKMRLKAALTQQHPPVTNGDTVKGHGSGLVRTQSEESRPQSLQQPATSTTETPASPAHTTPQTQSTSGRRRRAANEDPDEKRRKFLERNRAAASRCRQKRKVWVQSLEKKAEDLSSLNGQLQSEVTLLRNEVAQLKQLLLAHKDCPVTAMQKKSGYHTADKDDSSEDISVPSSPHTEAIQHSSVSTSNGVSSTSKAEAVATSVLTQMADQSTEPALSQIVMAPSSQSQPSGS
binding (Flag-tagged TCF1 (human)): binds

B2: Endogenous ATF2 (K562 and Ramos cells) (protein, UniProt P15336 1-505)
chain: MKFKLHVNSARQYKDLWNMSDDKPFLCTAPGCGQRFTNEDHLAVHKHKHEMTLKFGPARNDSVIVADQTPTPTRFLKNCEEVGLFNELASPFENEFKKASEDDIKKMPLDLSPLATPIIRSKIEEPSVVETTHQDSPLPHPESTTSDEKEVPLAQTAQPTSAIVRPASLQVPNVLLTSSDSSVIIQQAVPSPTSSTVITQAPSSNRPIVPVPGPFPLLLHLPNGQTMPVAIPASITSSNVHVPAAVPLVRPVTMVPSVPGIPGPSSPQPVQSEAKMRLKAALTQQHPPVTNGDTVKGHGSGLVRTQSEESRPQSLQQPATSTTETPASPAHTTPQTQSTSGRRRRAANEDPDEKRRKFLERNRAAASRCRQKRKVWVQSLEKKAEDLSSLNGQLQSEVTLLRNEVAQLKQLLLAHKDCPVTAMQKKSGYHTADKDDSSEDISVPSSPHTEAIQHSSVSTSNGVSSTSKAEAVATSVLTQMADQSTEPALSQIVMAPSSQSQPSGS
binding [4]: binds

B3: Endogenous ATF7 (K562 and Ramos cells) (protein, UniProt P17544 1-483)
chain: MGDDRPFVCNAPGCGQRFTNEDHLAVHKHKHEMTLKFGPARTDSVIIADQTPTPTRFLKNCEEVGLFNELASSFEHEFKKAADEDEKKAAAGPLDMSLPSTPDIKIKEEEPVEVDSSPPDSPASSPCSPPLKEKEVTPKPVLISTPTPTIVRPGSLPLHLGYDPLHPTLPSPTSVITQAPPSNRQMGSPTGSLPLVMHLANGQTMPVLPGPPVQMPSVISLARPVSMVPNIPGIPGPPVNSSGSISPSGHPIPSEAKMRLKATLTHQVSSINGGCGMVVGTASTMVTARPEQSQILIQHPDAPSPAQPQVSPAQPTPSTGGRRRRTVDEDPDERRQRFLERNRAAASRCRQKRKLWVSSLEKKAEELTSQNIQLSNEVTLLRNEVAQLKQLLLAHKDCPVTALQKKTQGYLESPKESSEPTGSPAPVIQHSSATAPSNGLSVRSAAEAVATSVLTQMASQRTELSMPIQSHVIMTPQSQSAGR
binding [4]: binds
